Results as given in publication PMC6919601, “Identification of Plasmodium dipeptidyl aminopeptidase allosteric inhibitors by high throughput screening” (PLoS ONE, 2019).
“And” between values parts separate entries of the source, which are not always exact repeats. Identical values can stand only once. About 230 (0.21%) of roughly 110,000 compounds showed an effect of 50% or more. Some of the results follow.

Target: DPAP1 (Plasmodium falciparum, UniProt Q8IIJ9)
Assay: primary screen, percent inhibition; read by cleavage of a fluorogenic dipeptide substrate; higher = more effect of the substance
Parameters: species or system P. falciparum D10 trophozoite lysates; single well
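Further: 30 min substrate incubation versus DMSO and 10 µM JCP410 controls.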

DPAP1, sequence (Q8IIJ9 whole entry, looked up): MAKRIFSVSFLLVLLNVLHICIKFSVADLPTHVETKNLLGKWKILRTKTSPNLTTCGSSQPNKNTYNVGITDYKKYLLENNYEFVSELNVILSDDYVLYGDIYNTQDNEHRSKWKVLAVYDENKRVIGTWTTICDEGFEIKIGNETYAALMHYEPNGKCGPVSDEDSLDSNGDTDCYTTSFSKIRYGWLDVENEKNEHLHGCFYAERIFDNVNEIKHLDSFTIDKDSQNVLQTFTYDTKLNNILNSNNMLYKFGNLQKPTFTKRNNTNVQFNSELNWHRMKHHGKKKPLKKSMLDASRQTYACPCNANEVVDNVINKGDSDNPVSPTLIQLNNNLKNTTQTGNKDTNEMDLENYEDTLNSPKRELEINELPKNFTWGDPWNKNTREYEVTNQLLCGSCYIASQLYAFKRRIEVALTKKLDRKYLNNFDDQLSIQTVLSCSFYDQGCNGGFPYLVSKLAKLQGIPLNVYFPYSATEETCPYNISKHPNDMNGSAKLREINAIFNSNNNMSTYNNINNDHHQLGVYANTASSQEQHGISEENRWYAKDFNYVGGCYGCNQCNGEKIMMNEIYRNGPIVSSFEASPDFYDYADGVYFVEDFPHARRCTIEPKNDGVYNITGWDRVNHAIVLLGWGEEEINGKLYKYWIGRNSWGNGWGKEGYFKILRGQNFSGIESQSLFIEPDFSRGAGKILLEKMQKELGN

Point of comparison: `N#Cc1c(SCC(N)=O)nc2c(c1-c1ccco1)CC/C2=C\c1ccco1`, “% Inhibition @ 10 uM” value 20.2%. Against it:
- COc1ccc(-c2nc(CS(=O)CC(=O)O)c(C)o2)cc1 (stereo not shown) — lower, 1.42%
- CC(Nc1nc(Nc2cccc(C(F)(F)F)c2)nc(N2CCOCC2)n1)c1ccccc1 (stereo not shown) — lower, 3.05%
- Cc1ccc(CNC(=O)NCc2cccn2Cc2ccccc2)cc1 — lower, -2.23%
- CCSCCOC(=O)C1=C(C)NC(=O)CC1c1ccccc1C (stereo not shown) — lower, -2.87%
- CCOC(=O)c1sc2nc(SCC(=O)NCc3ccco3)n(Cc3ccccc3)c(=O)c2c1C — lower, -2.56%
- Cn1c2ccccc2c2nnc(SCc3ccccc3)nc21 — lower, -3.64%
- CCOC(=O)N1CCC(NC(=O)Cc2cn(C)c3ccccc23)CC1 — lower, -2.41%
- COc1ccc(N2C(=O)CC(N3CCN(c4cccc(C(F)(F)F)c4)CC3)C2=O)cc1 (stereo not shown) — lower, 4.74%
- c1ccc(-c2cc3ccccc3[nH]2)cc1 — lower, -5.01%
- O=C(CCCOc1ccc(Cl)cc1)NCCc1nc2ccccc2[nH]1 — lower, 0.487%
- COc1ccc(C=C2C(=O)c3ccccc3C2=O)cc1OC — lower, -2.51%
- Cc1cc(C)cc(NC(=O)c2cccs2)c1 — lower, -3.26%
- COc1ccc(NC(=O)Cn2cnc3c2c(=O)n(C)c(=O)n3C)cc1OC — lower, -5.27%
- O=C(O)Cn1nnc(-c2ccccc2F)n1 — lower, -7.18%
- COC(=O)C1=C(C)N(C)C(=O)NC1c1ccc(Cl)c(Cl)c1 (stereo not shown) — lower, 1.27%
- CC1(C)CC(=O)C2=C(C1)N(c1nc[nH]n1)C(N)=C(C#N)C2c1ccc(Br)cc1 (stereo not shown) — lower, -2.77%
- COCCN1C(=O)C(O)=C(C(=O)c2ccccc2)C1c1ccc(Cl)cc1 (stereo not shown) — lower, 2.65%
- CSc1nc(Oc2ccc(C)c(C)c2)cc(-n2cncn2)n1 — lower, -5.13%
- CC1CCN(c2ccc3nnc(CCC(=O)NCC(C)c4ccccc4)n3n2)CC1 (stereo not shown) — lower, -5.85%
- CC(C)N1CCc2nc3sc(C(N)=O)c(N)c3cc2C1 — lower, 2.34%
- Cc1ccc(/C=C2\C(=N)N3N=C(N4CCCC4)SC3=NC2=O)o1 — lower, -1.66%
- Nc1cccc2c1C(=O)c1c(N)cccc1C2=O — lower, -2.42%
- CCOc1ncnc2sc3c(c12)CCC(C)C3 (stereo not shown) — lower, 0.138%
- COc1ccc(NC(=O)c2ccccc2N)c(OC)c1 — lower, 3.24%
- Cc1ccc2c(CNCCC3=CCCCC3)c(C(=O)O)[nH]c2c1 — lower, -0.397%
- Cc1ccc(C(C)C)c(OCC(O)CN2CCC(C)CC2)c1 (stereo not shown) — lower, 2.86%
- CCOC(=O)c1cnc2c(OC)cccc2c1N1CCC(C)CC1 — lower, 1.08%
- O=c1c2ccccc2nc(C(Cl)(Cl)Cl)n1Cc1ccccc1 — lower, -3.37%
- COc1ccc(C)cc1NC(=O)Cn1nc(C(F)(F)F)cc1C1CC1 — lower, 2.08%
- CC(=O)c1cc2c(cc1NC(=O)c1ccc(C(C)(C)C)cc1)OCO2 — lower, -0.318%
- CC1CCN(S(=O)(=O)c2ccc3ncc(C(=O)NCCCN4CCOCC4)c(O)c3c2)CC1 — lower, -8.86%
- CSc1nc(-c2ccccc2)nc(NC(=O)C(C)C)c1C(C)=O — lower, -7.09%
- C=CCN1C(=O)c2ccccc2C1(O)c1ccc(C)cc1 (stereo not shown) — lower, -4.21%
- COc1ccc(C2(CC(=O)O)CCOC(C)(C)C2)cc1 (stereo not shown) — lower, 0.0265%
- O=C(Nc1ncc(Cc2ccccc2)s1)C(c1ccccc1)c1ccccc1 — lower, -0.424%
- CCn1c(C(=O)O)c(CNCc2ccc(Cl)cc2)c2ccccc21 — lower, -5.05%
- O=C(c1ccccc1F)N1CCN(c2cccc(Cl)c2)CC1 — lower, -7.02%
- Cc1ccc(C(=O)Nc2cc(Cl)cc(Cl)c2)cc1 — lower, -0.856%
- CN(C)CCNC(=O)Cn1cnc2onc(-c3ccc(F)cc3)c2c1=O — lower, -4.94%
- Cc1ccc(-c2cc(C(=O)N3CCN(Cc4ccc(F)cc4)CC3)[nH]n2)cc1 — lower, -1.3%
- O=C(O)/C=C/C(=O)Nc1ccccc1-c1ccccc1NC(=O)/C=C/C(=O)O — lower, -0.999%
- CC1CN(c2ccc([N+](=O)[O-])c(N)c2)CCN1 (stereo not shown) — lower, -1.74%
- Cc1nc2nc(-c3ccc(F)cc3)cn2nc1C — lower, -3.04%
- CCS(=O)(=O)N1CCCC(C(=O)NCCCN(C)Cc2ccccc2)C1 (stereo not shown) — lower, 1.62%
- Cc1ccc(S(=O)(=O)N2CCC(C(=O)N3CCC(C(=O)NC(C)c4ccccc4)CC3)CC2)cc1 (stereo not shown) — lower, 5.23%
- CCOc1ccc(/C=C/c2nc(C#N)c(NCCc3ccc(OC)c(OC)c3)o2)cc1 — lower, 0.895%
- CC1CCCN(C(=O)C2CCN(S(=O)(=O)c3cccc4nsnc34)CC2)C1 (stereo not shown) — lower, -7.16%
- Cc1cc(C)c(S(=O)(=O)Nc2cnc3ccccc3c2)c(C)c1 — lower, 0.266%
- Cc1ccnc(NS(=O)(=O)c2ccc(NC(=O)c3ccccc3Br)cc2)n1 — lower, 0.812%
- COc1ccc(C2C(C#N)=C(N)Oc3ccc4ccccc4c32)cc1OC (stereo not shown) — lower, 4.08%
- CCOC(=O)N1CCN(C(=O)CN(c2ccc(C(C)C)cc2)S(=O)(=O)c2ccccc2)CC1 — lower, 0.361%
- Cc1ccc(S(=O)(=O)N(CC(=O)Nc2ccc(S(N)(=O)=O)cc2)Cc2ccccc2F)cc1 — lower, 0.367%
- COc1ccccc1/C=C/C(=O)c1ccco1 — lower, 6.04%
- COc1ccc(C2OC3(C(=O)c4ccccc4C3=O)C3C(=O)N(c4ccccc4F)C(=O)C23)cc1 (stereo not shown) — lower, 5.39%
- CC(C)OCCCn1c(=O)c2ccccc2n2c(-c3cccs3)nnc12 — lower, -1.72%
- COc1cc(NC(=O)CSc2ccccc2)c(C(=O)O)cc1OC — lower, -3.39%
- CCCOc1ccc(Br)cc1C1=CSC2=NCCN12 — lower, -2.54%
- Clc1ccc(C(Cc2ccccc2)NC2CN3CCC2CC3)cc1 (stereo not shown) — lower, -2.99%
- O=C(CNS(=O)(=O)c1ccc(Br)cc1)N1CCN(Cc2ccc3c(c2)OCO3)CC1 — lower, -7.28%
- CCOc1ccc(C2=CC(c3ccccc3F)n3nnnc3N2)cc1Cl (stereo not shown) — lower, -1.62%
- Fc1cnc(N2CCOCC2)nc1N1CCN(c2ccccc2)CC1 — lower, 2.22%

In the case of `CCc1ccccc1NC(=O)CN(c1cccc(OC)c1)S(C)(=O)=O`, the “% Inhibition @ 10 uM” value is reported as 2.36% and -3.71%.
For `Cc1cc(O)nc(-c2ccccc2O)n1`, the “% Inhibition @ 10 uM” value was -5.62% and 0.247%.
